Assay results taken from PubChem BioAssay AID938 (National Center for Advancing Translational Sciences (NCATS), 2007).
“And” between values parts separate entries of the source, which are not always exact repeats. Equal entries are not always repeated. Out of some 73,000 compounds screened, about 1,800 (2.5%) were called active. The inconclusive results got no clear call from the source; some entries with a clear call stand among them for comparison. Calls follow the shape of the dose curve; as a rule, active = well fitted activation curve with a large enough effect; inconclusive = small, poorly fitted or top-dose-only effect; inactive = no such curve, though single readings can be large or run the other way. Where the call is inconclusive, the potency comes from a doubtful curve fit.

Experiment: qHTS Assay for Agonists of the Thyroid Stimulating Hormone Receptor: Activators of Intracellular cAMP Concentrations in Parental HEK 293; also: nearly all actives have a fitted effect of over 55% in size; as to activation: % of control where 0% means no effect
Conditions: parental HEK293 CNG cAMP sensor, membrane potential fluorescence; activation: at 57.1 µM (top of the series) unless noted
Method in brief: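 Parental HEK 293 cells stably expressing a cAMP-gated CNG channel were loaded with membrane potential dye containing 100 uM RO 20-1724 for 60 min. Compound added for 30 min; depolarization read as fluorescence intensity at 590 nm.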
Potency is read from the fitted curve at half-maximal effect; tags tell the direction and shape of the fitted curve.

Compound	Potency	activation
Oc1ccc(C(c2nnnn2C2CCCC2)N2CCc3ccccc3C2)cc1 (stereo not drawn)	inconclusive: 25.1 µM [activator, single point]	
CCn1c(SCC(=O)Nc2ccccc2N2CCCCC2)nc2c1c(=O)n(C)c(=O)n2C	active: 15.8 µM	
O=C(Cn1c(=O)oc2cc(S(=O)(=O)N3CCCC3)ccc21)NCc1ccccn1	inactive	
CCOC(=O)C1CCN(C(=O)Nc2ccccc2Cl)CC1	inconclusive: 0.316 µM [activator, single point]	
Cc1nc2cnc(Oc3ccccc3)nc2n(Cc2cccs2)c1=O	active: 15.8 µM	
CNC(=O)c1cc2c(cn1)[nH]c1ccccc12	inactive and inconclusive: 3.98 µM [activator, single point]	
NC(N)=NNC(=O)C(=O)O		inactive: 8.04% [at 11.4 µM]
CCOC(=O)C(CCCOc1cccc(OC)c1)C(=O)OCC	inconclusive: 12.6 µM [activator, partial curve, poor fit]	
COc1ccccc1-c1cc(C2CC2)nc(N)c1C#N	inconclusive: 20 µM [activator, single point]	
CCCCCn1c(N(C)Cc2ccccc2)nc2c1c(=O)[nH]c(=O)n2C	inconclusive: 39.8 µM [activator, single point]	
CC(C)OCCCNC(=O)C1CCC(=O)N1C(C)C (stereo not drawn)	inconclusive: 5.01 µM [activator, single point]	
Cc1cccc(N2CCN(c3nnnn3-c3ccccc3)CC2C)c1 (stereo not drawn)	active: 25.1 µM	
COc1ccc(CCn2c(SCC(=O)Nc3cc(C)on3)nc3ccsc3c2=O)cc1OC	inconclusive: 39.8 µM [activator, single point]	
CCn1nc(NC(=O)c2ccncc2)c2cc3cc(C)ccc3nc21	inactive	
C=CCn1c(SCn2nnc3ccccc3c2=O)nc2scc(-c3cccs3)c2c1=O	inactive	
CCc1ccc(O)c(N=Cc2ccccc2O)c1	inactive	
COc1ncc2nc(C)c(=O)n(C3CC3)c2n1	inactive	
Cc1ccsc1C(=O)OCc1csc(-c2ccccc2)n1	inconclusive: 39.8 µM [activator, single point]	
COc1cccc(-c2cc(C(=O)NC3CCCC3)no2)c1	inconclusive: 12.6 µM [activator, partial curve]	
COc1ccc(C(=O)NC2CCN(S(=O)(=O)Cc3ccccc3)CC2)c(OC)c1	active: 10 µM	
CN(C(=O)c1ccco1)c1nnc(C23CC4CC(CC(C4)C2)C3)s1	inactive	
COCCn1c(SC(C)C(=O)Nc2ccc3c(c2)OCCO3)nc2ccccc2c1=O (stereo not drawn)	inconclusive: 15.8 µM [activator, partial curve]	
C=CCn1c(=O)c(C(=O)Nc2ccccc2C(=O)OCC)c(O)c2ccccc21	inconclusive: 25.1 µM [activator, partial curve]	
Nc1ccc(-n2c(N)c(C(=O)NCc3ccc4c(c3)OCO4)c3nc4ccccc4nc32)cc1	inactive	
COc1ccc(O[C@H]2C=C[C@@H](c3ccccc3)O[C@H]2COC(=O)CC/C(C)=N\OC[C@@H](O)[C@H]2O[C@H]3OC(C)(C)O[C@H]3[C@@H]2O)cc1		inactive: 2.39% [at 11.4 µM]

Compound	Potency	activation
Cn1cc(-c2nc3cncnc3n(-c3ccccc3)c2=O)c2ccccc21	inconclusive: 3.16 µM [activator, partial curve]	
Cc1ccc(CNc2oc(-c3cccs3)nc2C#N)cc1	inconclusive: 39.8 µM [activator, single point]	
Cc1ccc2c(c1)C1C=CCC1C(C(=O)O)N2 (stereo not drawn)	inactive	
CC1Oc2ccccc2N(CC(=O)c2ccccc2)C1=O (stereo not drawn)	inactive	
CC1CCN(Cc2nc3c(c(=O)n(C)c(=O)n3C)n2CCc2ccccc2)CC1	active: 5.01 µM	
COCCn1c(CN2CCC(Cc3ccccc3)CC2)nc2c1c(=O)n(C)c(=O)n2C	inactive	
N=C(N)c1ccc(/C=C\c2ccc(C(=N)N)cc2)cc1		inactive: 3.66% [at 11.4 µM]
COc1ccccc1-c1ccc2ncnc(Nc3ccccc3)c2c1	active: 15.8 µM	
COC(=O)[C@H](C)[C@H]1C[C@]1(C)[C@H](NC(=O)OCc1ccccc1)c1ccccc1	active: 2 µM	
COC(=O)C1CCN(C(=O)CN2C(=O)NC(CCc3ccccc3)C2=O)CC1 (stereo not drawn)	inconclusive: 6.31 µM [activator, single point]	
CCCCCCN	inactive	
CC(C)Cn1c(N)c(C(=O)NCC2CCCO2)c2nc3ccccc3nc21 (stereo not drawn)	inconclusive: 2.51 µM [activator, full curve]	
O=C1C2CCC(C(O)C2)N1Cc1ccccc1 (stereo not drawn)	inconclusive: 0.1 µM [activator, partial curve]	
CCc1nnc(NC(=O)CSc2nnc(-c3ccccc3OC)n2-c2ccccc2)s1	active: 10 µM	
O=C(O)[C@@H]1[C@@H](C(=O)Nc2ccccc2)[C@@H]2C=C[C@@H]1O2		inactive: -0.729% [at 11.4 µM]
C=CCn1c(SCC(=O)NC(=O)NCC(C)C)nnc1C1CCCCC1	inconclusive: 12.6 µM [activator, partial curve]	
N#CCCn1c(=O)c(-c2cccs2)nc2cnc(N3CCOCC3)nc21	inconclusive: 31.6 µM [activator, single point]	
CCc1nc(C)cn1S(=O)(=O)c1cc(OC)c(C)cc1C	inconclusive: 10 µM [activator, partial curve]	
COc1cc2c(cc1OC)-c1cc(=Nc3c(C)cc(C)cc3C)n(C)c(=O)n1CC2	inconclusive: 20 µM [activator, single point] and inconclusive: 15.8 µM [activator, single point]	
N#CC1=C(N)S[C@H](C(=O)C23CC4CC(CC(C4)C2)C3)[C@H]1c1ccncc1	inactive	
Cn1nc(OCCOc2ccccc2)ccc1=O	inactive	
CCN(CC)S(=O)(=O)c1ccc2nc(NC(=O)c3cccs3)sc2c1	inconclusive: 31.6 µM [activator, single point]	
CC(=O)OC(C(=O)NC1CCCCC1)c1ccccc1 (stereo not drawn)	inconclusive: 3.98 µM [activator, single point]	
Cc1cc(C)cc(OCc2nnc(SCC(=O)Nc3ccccc3)o2)c1	inactive	
CCn1nc(C)c(NC(=O)CCCSc2nc(-c3ccco3)cc(C(F)(F)F)n2)c1C	inconclusive: 3.98 µM [activator, partial curve]	

Compound	Potency	activation
Nc1nc(-c2ccco2)nc(N2CCCCC2)n1	inactive	
CCOC(=O)c1sc2nc3n(c(=O)c2c1C)CCC(C)CC3 (stereo not drawn)	inconclusive: 10 µM [activator, partial curve]	
COc1cc2cc(C(c3nnnn3C3CCCCC3)N(C)C3CCCCC3)c(=O)[nH]c2cc1OC (stereo not drawn)	inconclusive: 15.8 µM [activator, partial curve]	
Cc1cccc(Nc2nc(N)nc(CN3CCN(Cc4ccc5c(c4)OCO5)CC3)n2)c1	inactive	
O=C1CCC(c2ccc(-n3ccnc3)cc2)=NN1	inconclusive: 39.8 µM [activator, single point]	
Cc1ccc(NCc2nnc(SCc3ccc(C#N)cc3)n2Cc2ccco2)c(C)c1	inconclusive: 15.8 µM [activator, partial curve, poor fit]	
O=C(c1scc2c1CCCC2)N1CCCCC1	inactive	
FC(F)(F)c1ccccc1-c1ccc2ncnc(NCCN3CCOCC3)c2c1	inconclusive: 15.8 µM [activator, partial curve]	
O=C(c1ccc(CS(=O)(=O)c2cccc(C(F)(F)F)c2)o1)N1CCN(c2ccccn2)CC1	inconclusive: 39.8 µM [activator, single point]	
COc1cc(C#CC#CCN2CCCCC2)ccc1O	inconclusive: 3.98 µM [activator, partial curve]	
Cn1c(Cn2c(=O)sc3ccccc32)nnc1SCC(N)=O	inconclusive: 39.8 µM [activator, single point]	
CCNC(=O)N1CCN(CCCC(c2ccc(F)cc2)c2ccc(F)cc2)CC1	inconclusive: 3.98 µM [activator, single point]	
NC(=O)c1ccc(-c2ccc(Br)cc2)o1	inactive	
O=C(Nc1nc(-c2ccccc2)cs1)c1ccc(Br)o1	inconclusive: 6.31 µM [activator, single point]	
COc1ccc(-c2noc(CSc3nnc(CCc4ccccc4)n3-c3ccccc3)n2)cc1OC	inconclusive: 15.8 µM [activator, single point]	
c1coc(CN(Cc2cccs2)Cc2nnnn2C2CCCCC2)c1	inconclusive: 20 µM [activator, partial curve]	
Cc1cc(C)c2[nH]c(=O)c(CN(Cc3ccc4c(c3)OCO4)Cc3nnnn3C3CCCC3)cc2c1	inconclusive: 12.6 µM [activator, partial curve]	
CCN(C1CCCCC1)S(=O)(=O)c1cn(C)c(=O)n(C)c1=O	active: 3.16 µM	
COc1cccc(C2NC(C)(C(=O)O)C3C(=O)N(C(C)C)C(=O)C23)c1O (stereo not drawn)	inconclusive: 7.94 µM [activator, single point]	
Brc1ccc(-c2nnc3n2-c2ccccc2CC3)cc1	inconclusive: 25.1 µM [activator, single point]	
COc1ccccc1CCn1c(=O)c(-c2cccs2)nc2cncnc21	inconclusive: 2 µM [activator, full curve]	
OCc1cn(-c2ccccc2)nc1-c1ccc2c(c1)OCCO2	inactive	
O=C(c1ccc(Cl)cc1)N1CCC(c2nc(-c3cccs3)no2)CC1	inconclusive: 15.8 µM [activator, partial curve]	
